The shares of active, inactive and inconclusive entries below differ from those in the screen. A potency beside an inconclusive call is a rough fit, not a confirmed value. Calls of active or inactive are those of the source. Unless noted, the call rests on the fitted dose curve; in most records, active means well fitted curve in the direction sought with a large enough effect; inconclusive means small, poorly fitted or top-dose-only effect, or another doubt; inactive means no such curve, though single readings can be large; an effect the other way counts as inactive or inconclusive.
Legend:
[1] = target: Aldehyde dehydrogenase, mitochondrial (Homo sapiens) (UniProt P05091); assay: qHTS for Inhibitors of the Aldehyde Dehydrogenase Family (ALDH2) Confirmatory screens (AID 2061303; active means well fitted inhibition curve with a large enough effect; inconclusive means small, poorly fitted or top-dose-only effect; inactive means no such curve, though single readings can be large or run the other way; title and protocol of this record describe different tests; further: nearly all actives have a fitted effect of over 45% in size); details: ALDH inhibition qHTS; activity change, negative = inhibition: at 45.4 µM (top of the series)
[2] = qHTS for Inhibitors of the Aldehyde Dehydrogenase Family (ALDH1A2, ALDH1A3, ALDH2, ALDH3A1) (AID 2061307); details: ALDH inhibition qHTS; activity change, negative = inhibition: at 50.3 µM (top of the series) unless noted; further: nearly all actives have a fitted effect of over 50% in size; on potency: test system not described further here
[3] = target: Aldehyde dehydrogenase, mitochondrial (Homo sapiens) (UniProt P05091); assay: qHTS for Inhibitors of the Aldehyde Dehydrogenase Family (ALDH2) Primary screen (AID 2061308); further: nearly all actives have a fitted effect of over 55% in size
[4] = target: Retinaldehyde dehydrogenase 3 (Homo sapiens) (UniProt P47895); assay: qHTS for Inhibitors of the Aldehyde Dehydrogenase Family (ALDH1A3) Confirmatory screens (AID 2061311); details: activity change, negative = inhibition: at 46 µM (top of the series); further: nearly all actives have a fitted effect of over 60% in size
[5] = target: Retinal dehydrogenase 2 (Homo sapiens) (UniProt O94788); assay: qHTS for Inhibitors of the Aldehyde Dehydrogenase Family (ALDH1A2) Confirmation screens (AID 2061314); details: activity, negative = inhibition: at 45.9 µM (top of the series) unless noted; further: nearly all actives have a fitted effect of over 65% in size
[6] = target: Aldehyde dehydrogenase 1A1 (Homo sapiens) (UniProt P00352); assay: qHTS for Inhibitors of the Aldehyde Dehydrogenase Family (ALDH1A1) Confirmatory screens (AID 2061316); details: activity change, negative = inhibition: at 47.3 µM (top of the series); further: nearly all actives have a fitted effect of over 65% in size
[7] = target: Retinaldehyde dehydrogenase 3 (Homo sapiens) (UniProt P47895); assay: qHTS for Inhibitors of the Aldehyde Dehydrogenase Family (ALDH1A3) Primary screen (AID 2061315); details: ALDH inhibition qHTS; activity change, negative = inhibition: at 56 µM (top of the series) unless noted

Measured: Potency
Potency means the concentration at half of the fitted maximal effect; tags describe the fitted curve by direction and shape.

COc1ccc(-c2cnc(N3CCC(C(N)=O)CC3)s2)cc1OC
inconclusive: [1] 1.12 µM [inhibitor, full curve, poor fit] | [2] 22.4 µM [inhibitor, single point] | [3] 14.1 µM [inhibitor, partial curve, poor fit] | [4] 11.3 µM [inhibitor, partial curve] | [5] 1.79 µM [inhibitor, full curve] | [6] 17.9 µM [inhibitor, partial curve]

O=c1c2ccccc2nc2sc(NCc3ccccc3)nn12
inconclusive: [1] 14.2 µM [inhibitor, partial curve, poor fit] | [2] 25.2 µM [inhibitor, partial curve] | [3] 20 µM [inhibitor, partial curve] | [4] 20.1 µM [inhibitor, partial curve] | [5] 12.7 µM [inhibitor, partial curve] | [6] 11.3 µM [inhibitor, partial curve]

CN(CC(=O)Nc1ccc(N2CCOCC2)cc1)Cc1cccc2ccccc12
active: [6] 11.3 µM
inconclusive: [1] 12.7 µM [inhibitor, partial curve] | [2] 12.7 µM [inhibitor, partial curve] | [3] 3.16 µM [inhibitor, full curve] | [4] 25.2 µM [inhibitor, partial curve] | [5] 12.7 µM [inhibitor, partial curve]

Cc1cc(C)nc(NC(=C(C#N)C#N)N2CCN(c3cccc(C(F)(F)F)c3)CC2)c1
inconclusive: [2] 28.3 µM [inhibitor, single point] | [3] 10 µM [inhibitor, partial curve, poor fit] | [4] 22.5 µM [inhibitor, partial curve, poor fit] | [5] 15.9 µM [inhibitor, partial curve, poor fit] | [6] 22.5 µM [inhibitor, partial curve]
active: [1] 14.2 µM

O=C(NCCc1nc2ccccc2n1CCCc1ccccc1)C1CCCCC1
inactive: [2] | [5]
inconclusive: [1] 15.9 µM [inhibitor, partial curve, poor fit] | [3] 5.01 µM [inhibitor, partial curve] | [4] 31.8 µM [inhibitor, single point] | [6] 17.9 µM [inhibitor, partial curve]

FC(F)(F)c1ccccc1-c1nc(NCc2ccc(-c3ccccc3)cc2)c2ccccc2n1
inactive: [6]
active: [4] 3.57 µM
inconclusive: [1] 25.2 µM [inhibitor, partial curve, poor fit] | [2] 2.82 µM [inhibitor, full curve] | [3] 15.8 µM [inhibitor, partial curve, poor fit] | [5] 31.6 µM [inhibitor, partial curve, poor fit]

O=C(Nc1ccc(Cl)c(Cl)c1)Nc1cccc(-c2ccncc2)n1
inconclusive: [3] 20 µM [inhibitor, single point] | [4] 25.2 µM [inhibitor, partial curve]
not listed: [7]
inactive: all other assays above

Cc1cc(C)nc(NC(=S)N2CCN(c3cccc4ccncc34)CC2)c1
active: [1] 12.7 µM | [3] 3.16 µM | [4] 11.3 µM | [5] 10.1 µM | [6] 4 µM
inconclusive: [2] 11.3 µM [inhibitor, partial curve] | [7] 7.08 µM [inhibitor, full curve]

c1csc(CNc2ccc(N3CCCCC3)cc2)c1
inconclusive: [1] 12.7 µM [inhibitor, partial curve, poor fit] | [2] 12.7 µM [inhibitor, partial curve] | [5] 17.9 µM [inhibitor, partial curve] | [7] 12.6 µM [inhibitor, partial curve] | [6] 20.1 µM [inhibitor, partial curve]
inactive: [3]
active: [4] 20.1 µM

COc1ccc(C2c3c(N)nc(CCc4ccccc4)nc3Oc3ccc4ccccc4c32)cc1OC (centres undefined)
inactive: [2]
inconclusive: [1] 11.3 µM [inhibitor, partial curve] | [3] 7.94 µM [inhibitor, partial curve] | [4] 28.3 µM [inhibitor, partial curve, poor fit] | [5] 22.5 µM [inhibitor, partial curve] | [6] 17.9 µM [inhibitor, partial curve]

N#Cc1c(-c2ccc(Br)cc2)no[n+]1[O-]
inconclusive: [1] 11.3 µM [inhibitor, partial curve] | [4] 12.7 µM [inhibitor, partial curve] | [6] 11.3 µM [inhibitor, partial curve]
active: [2] 7.98 µM | [3] 7.94 µM | [5] 7.12 µM

CC(=O)NC(c1ccco1)c1cc(Cl)c2ccccc2c1O (centres undefined)
active: [4] 11.3 µM
inconclusive: [1] 11.3 µM [inhibitor, partial curve] | [2] 5.65 µM [inhibitor, partial curve] | [3] 1.78 µM [inhibitor, full curve, poor fit] | [5] 2.52 µM [inhibitor, full curve] | [7] 2.82 µM [inhibitor, full curve] | [6] 2.52 µM [inhibitor, full curve]

Nc1c(-c2ccncc2)cc[nH]c1=O
active: [5] 0.634 µM
inconclusive: [1] 3.57 µM [inhibitor, partial curve] | [2] 1.59 µM [inhibitor, partial curve] | [3] 15.8 µM [inhibitor, partial curve, poor fit] | [4] 22.5 µM [inhibitor, partial curve] | [6] 12.7 µM [inhibitor, partial curve]

CCc1nnc2sc(-c3ccc(C)c(NC(=O)c4ccc(-c5cccc(Cl)c5)o4)c3)nn12
active: [2] 12.6 µM | [5] 3.18 µM
inconclusive: [1] 0.224 µM [inhibitor, full curve, poor fit] | [3] 11.2 µM [inhibitor, partial curve, poor fit] | [4] 12.6 µM [inhibitor, full curve, poor fit] | [7] 12.6 µM [inhibitor, partial curve] | [6] 20.1 µM [inhibitor, partial curve, poor fit]

CC(C)N1CCc2c(sc(NC(=O)C(F)(F)F)c2-c2nc3ccccc3s2)C1
inconclusive: [4] 7.12 µM [inhibitor, partial curve] | [5] 7.98 µM [inhibitor, partial curve] | [7] 10 µM [inhibitor, partial curve, poor fit]
active: [1] 11.3 µM | [2] 8.96 µM | [3] 31.6 µM | [6] 5.65 µM

O=C(N1Cc2ccc(Nc3nn4c(=O)c5ccccc5nc4s3)cc2C1)C(F)(F)F
inconclusive: [1] 10.1 µM [inhibitor, partial curve] | [2] 28.3 µM [inhibitor, partial curve] | [3] 7.08 µM [inhibitor, partial curve] | [4] 11.3 µM [inhibitor, partial curve, poor fit] | [5] 31.8 µM [inhibitor, single point] | [6] 22.5 µM [inhibitor, partial curve]

Cc1ccc(CN(C)c2ncnc3ccc(-c4ccc(CO)o4)cc23)o1
inconclusive: [1] 11.3 µM [inhibitor, partial curve] | [2] 25.2 µM [inhibitor, partial curve] | [3] 15.8 µM [inhibitor, partial curve] | [4] 11.3 µM [inhibitor, partial curve]
active: [5] 11.3 µM | [6] 2.52 µM

N#Cc1c(-c2ccc(O)cc2)no[n+]1[O-]
active: [2] 12.7 µM
inconclusive: [4] 25.2 µM [inhibitor, partial curve] | [5] 12.7 µM [inhibitor, partial curve] | [6] 7.98 µM [inhibitor, full curve]
inactive: [1] | [3]

N#Cc1c(-c2ccc(C(F)(F)F)cc2)no[n+]1[O-]
inconclusive: [1] 17.9 µM [inhibitor, partial curve] | [2] 22.5 µM [inhibitor, partial curve] | [3] 5.01 µM [inhibitor, partial curve, poor fit] | [4] 11.3 µM [inhibitor, partial curve, poor fit] | [5] 22.5 µM [inhibitor, partial curve] | [6] 10.1 µM [inhibitor, partial curve]
